From PubChem BioAssay AID588795 (National Center for Advancing Translational Sciences (NCATS), 2011)
The whole screen tested about 390,000 compounds, of which about 1,400 (0.36%) were called active. Inconclusive results, whose numbers are uncertain, are shown with a selection of clear calls. Calls follow the shape of the dose curve; as a rule, active = well fitted inhibition curve with a large enough effect; inconclusive = small, poorly fitted or top-dose-only effect; inactive = no such curve, though single readings can be large or run the other way. Where the call is inconclusive, the potency comes from a doubtful curve fit.

molecular target: Flap endonuclease 1 (Homo sapiens) (UniProt P39748); experiment: qHTS Assay for the Inhibitors of Human Flap endonuclease 1 (FEN1).; also: nearly all actives have a fitted effect of over 65% in size; conditions: Recombinant FEN1 flap cleavage, fluorescence, 15 min; series mostly up to 114 µM
UniProt P39748, sequence (P39748 whole entry, looked up): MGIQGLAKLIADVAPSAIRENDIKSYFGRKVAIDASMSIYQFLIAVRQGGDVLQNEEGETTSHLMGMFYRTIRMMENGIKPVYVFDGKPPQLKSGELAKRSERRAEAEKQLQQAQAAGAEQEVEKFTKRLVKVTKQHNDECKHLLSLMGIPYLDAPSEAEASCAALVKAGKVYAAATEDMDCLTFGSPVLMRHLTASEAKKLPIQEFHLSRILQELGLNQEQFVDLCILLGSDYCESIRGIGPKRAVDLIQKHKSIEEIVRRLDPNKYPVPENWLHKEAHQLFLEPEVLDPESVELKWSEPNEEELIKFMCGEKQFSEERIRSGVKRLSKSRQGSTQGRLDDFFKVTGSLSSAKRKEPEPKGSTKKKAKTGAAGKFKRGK
How it was run: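 Recombinant FEN1 (10 nM) was preincubated with pin-transferred compounds for 15 min at room temperature, then flap DNA substrate (50 nM final) was added. Plates were read at 0 and 15 min, and normalized concentration–response data were fitted to a four-parameter Hill equation.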
Potency is read from the fitted curve at half-maximal effect; tags tell the direction and shape of the fitted curve.

With COc1ccc(C(=O)CN2CCN(CCN3C(=O)c4cccc5cccc(c45)C3=O)CC2)cc1 as the molecule, how does the Potency read?
The Potency was inconclusive: 39.8 µM [inhibitor, partial curve].

O=C(O)c1ccccc1NS(=O)(=O)c1ccc(N/N=C/c2cccc(O)c2O)c([N+](=O)[O-])c1 was tested. Which Potency did it give?
The Potency was active: 39.8 µM.

How did the Potency turn out when O=[N+]([O-])c1c(Nc2ccc(O)cc2)cc(Cl)c2nonc12 was run?
The Potency was inconclusive: 12.6 µM [inhibitor, full curve, poor fit].

Which Potency does the source give for Nc1ccc(/C=C/c2cc(Cl)nc3ccccc23)cc1 here?
Its Potency is inconclusive: 79.4 µM [inhibitor, single point].

With CCC(=O)NC(c1ccco1)c1cc(Cl)c2cccnc2c1O (centres undefined) as the molecule, how does the Potency read?
The Potency was inconclusive: 44.7 µM [inhibitor, partial curve].

With COCCNC(=O)Cn1c(=O)n(CCCCCC(=O)NCc2ccc3c(c2)OCO3)c(=O)c2sccc21 as the molecule, how does the Potency read?
The Potency was “inactive”.

CCOC(=O)Cc1csc(SCC(=O)Nc2sc3c(c2C(N)=O)CCC3)n1 was tested. Which Potency did it give?
The Potency was active: 56.2 µM.

Cc1ccc(C(=O)c2c(NC(=O)c3cccnc3)sc3c2CCCC3)cc1 was tested. Which Potency did it give?
The Potency was inconclusive: 89.1 µM [inhibitor, partial curve, poor fit].

How did the Potency turn out when CCOc1ccc(CCNC(=O)CCCn2nc(C)c3sc4ccccc4c3c2=O)cc1 was run?
The Potency was “inactive”.

Which Potency does the source give for COC(CNC(=O)c1ccc2c3c(onc13)-c1ccccc1C2=O)OC here?
Its Potency is inconclusive: 22.4 µM [inhibitor, full curve].

COc1cccc(C(C(=O)NC2CCCC2)N(C(=O)c2ccco2)c2ccc(NC(C)=O)cc2)c1OC (centres undefined) was tested. Which Potency did it give?
Its Potency is “inactive”.

How did the Potency turn out when COc1cccc(N2CC(NC(=O)CCCc3ccccc3)CC2=O)c1 (centres undefined) was run?
The Potency was “inactive”.

With COc1cc(NC(=O)c2cc3c(Cl)nc4ccccc4c3s2)cc(OC)c1OC as the molecule, how does the Potency read?
Its Potency is inconclusive: 56.2 µM [inhibitor, partial curve, poor fit].

For Cc1cccc(NC(=O)CSc2nc(NS(=O)(=O)c3ccccc3)cc(=O)[nH]2)c1, which Potency is on record?
The Potency was “inactive”.

With Cc1ccc(C)c(Cn2c(-c3cccs3)nc3ccccc32)c1 as the molecule, how does the Potency read?
The Potency was “inactive”.

For COc1ccccc1N1CCN(C(=O)Cn2cnc3onc(-c4ccc(F)cc4)c3c2=O)CC1, which Potency is on record?
Its Potency is “inactive”.

For C(=Cc1c[nH]c2ccccc12)c1nccc2ccccc12, which Potency is on record?
The Potency was inconclusive: 70.8 µM [inhibitor, partial curve].

For Cc1c(OCC(=O)NC(Cc2ccc(Cl)cc2)C(=O)O)ccc2c(-c3ccccc3)cc(=O)oc12 (centres undefined), which Potency is on record?
The Potency was inconclusive: 28.2 µM [inhibitor, partial curve, poor fit].

For O=C(Nc1ccc(N2CCOCC2)cc1)c1cc2c(s1)CCCCC2, which Potency is on record?
Its Potency is inconclusive: 89.1 µM [inhibitor, partial curve, poor fit].
